Article PMC4336329 (PLoS ONE, 2015)
Out of some 310,000 compounds screened, about 2,200 (0.71%) showed an effect of 50% or more. Effects have a minus sign here. This is one part of the list.

Biological target: human ether-à-go-go-related gene (hERG) potassium channel (human, UniProt Q12809)
Assay: primary screen, population patch clamp on CHO cells stably expressing hERG

Sequence of human ether-à-go-go-related gene (hERG) potassium channel (Q12809 whole entry, looked up): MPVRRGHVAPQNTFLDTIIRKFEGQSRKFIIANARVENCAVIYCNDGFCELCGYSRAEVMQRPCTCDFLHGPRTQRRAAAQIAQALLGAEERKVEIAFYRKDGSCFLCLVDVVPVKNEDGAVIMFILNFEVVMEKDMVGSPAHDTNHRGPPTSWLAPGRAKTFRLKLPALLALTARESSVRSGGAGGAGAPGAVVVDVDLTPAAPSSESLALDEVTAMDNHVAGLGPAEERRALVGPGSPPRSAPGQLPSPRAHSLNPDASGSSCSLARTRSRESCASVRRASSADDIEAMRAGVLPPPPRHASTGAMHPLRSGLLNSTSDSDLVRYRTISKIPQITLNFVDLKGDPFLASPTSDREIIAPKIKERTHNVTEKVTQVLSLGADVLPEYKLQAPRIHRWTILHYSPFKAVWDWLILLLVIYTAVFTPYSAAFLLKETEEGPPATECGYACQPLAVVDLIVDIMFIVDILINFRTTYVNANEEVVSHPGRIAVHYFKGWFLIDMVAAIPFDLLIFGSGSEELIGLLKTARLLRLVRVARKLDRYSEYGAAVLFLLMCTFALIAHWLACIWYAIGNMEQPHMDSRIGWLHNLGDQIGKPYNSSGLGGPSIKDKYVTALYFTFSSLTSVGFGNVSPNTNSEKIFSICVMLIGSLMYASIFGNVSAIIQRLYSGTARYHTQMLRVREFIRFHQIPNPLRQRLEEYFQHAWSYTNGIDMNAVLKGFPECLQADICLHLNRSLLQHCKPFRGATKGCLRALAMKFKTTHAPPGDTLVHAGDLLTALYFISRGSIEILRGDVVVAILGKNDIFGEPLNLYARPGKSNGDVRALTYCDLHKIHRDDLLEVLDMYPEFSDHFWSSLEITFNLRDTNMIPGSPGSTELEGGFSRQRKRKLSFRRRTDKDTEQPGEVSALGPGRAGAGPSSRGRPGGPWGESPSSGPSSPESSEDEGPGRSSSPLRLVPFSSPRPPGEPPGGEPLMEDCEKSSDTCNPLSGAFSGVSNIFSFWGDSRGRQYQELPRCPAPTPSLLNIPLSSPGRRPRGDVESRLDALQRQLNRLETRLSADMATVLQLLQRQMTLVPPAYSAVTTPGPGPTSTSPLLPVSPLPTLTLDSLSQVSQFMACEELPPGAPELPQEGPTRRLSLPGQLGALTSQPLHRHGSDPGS

Compound	hERG current change (%, negative = inhibition) at 1uM
O=[N+]([O-])c1cccc(-c2nn(-c3ccccc3)cc2CO)c1	11.7%
Nc1nc(-c2ccccc2)c(N=Nc2cccc3ccccc23)s1	9.08%
O=C(NCCCc1nc2ccccc2[nH]1)c1ccco1	20.1%
Cc1ccc(-c2nc(CS(=O)(=O)CC(=O)NC3CCC(C)CC3)c(C)o2)cc1 (centres unmarked)	9.35%
Cc1cccc(C(=O)Nc2scc(-c3ccc(Br)cc3)c2C(=O)O)c1	15.9%
CCn1cc(C(=O)NP(=O)(Nc2ccc(C)cc2)Nc2ccc(C)cc2)c2ccccc21	8.49%
Cc1ccccc1-c1nc(P(=O)(c2ccccc2)c2ccccc2)c(N2CCOCC2)o1	10.9%
Cc1cccc(NC(=O)CSCC(=O)Nc2ccc(S(=O)(=O)N3CCOCC3)cc2)c1	12.9%
Cc1ccc(CC(=O)NCCC(=O)O)cc1	13.5%
O=C(CCNC(=O)c1ccc([N+](=O)[O-])cc1)Nc1ccccc1N1CCCC1	-6.37%
O=C1COc2ccc(-c3n[nH]c(=O)c4ccccc34)cc2N1	9.84%
CCCCNC(=O)N1CCCC(C(=O)c2cc(C)c(OC)c(C)c2)C1 (centres unmarked)	1.87%
Cc1onc(-c2ccccc2Cl)c1C(=O)NCC(=O)O	-5%
COc1cc(-c2nc(CN(C)Cc3nnc(C)o3)c(C)o2)ccc1F	-5.68%
C=CCNCCCCOc1ccc(OCC)cc1.O=C(O)C(=O)O	-4.67%
CC(C)CC(C(=O)O)N1C(=O)[C@@H]2[C@H](C1=O)[C@@H]1C[C@H]2C(Br)C1Br (some centres unmarked)	3.6%
O=c1[nH]ccc2c(O)cccc12	20.6%
O=C(CN1CCN(S(=O)(=O)c2ccc(Br)cc2)CC1)N/N=C/c1ccccc1C(=O)O	17.8%
O=C(CC1C(=O)NCCN1C/C=C/c1ccccc1)NCCCC1CCCC1 (centres unmarked)	-17.4%
COc1ccc(O)c(/C=C2/SC(=S)N(Cc3ccccc3)C2=O)c1	8.29%
O=C(NCC1CCCO1)c1ccc(Br)c(S(=O)(=O)N2CCOCC2)c1 (centres unmarked)	-6.94%
N#C/C(=C\c1c(N2CCOCC2)nc2ccccn2c1=O)S(=O)(=O)c1ccccc1	0.0867%

Compound	hERG current change (%, negative = inhibition) at 1uM
CC1CN(Cc2nc3c(c(=O)n(C)c(=O)n3C)n2Cc2cccc(Cl)c2)CC(C)O1 (centres unmarked)	8.66%
Cc1nc(CCNC(=O)CC2C(=O)NCCN2Cc2ccoc2)nc2c1CCCC2 (centres unmarked)	6.23%
CCN(CC)S(=O)(=O)c1cccc(C(=O)N[C@H](C(=O)Nc2nc3ccccc3s2)C(C)C)c1	14.4%
CC(C)(C)OC(=O)Nc1ncnc2c1ncn2C1OC(CO)C2OC(C)(C)OC21 (centres unmarked)	12.4%
CCCSc1cc(=O)n(-c2ccccc2)nc1C(=O)OCC	5.07%
COCCn1c(N)c(Sc2ccc([N+](=O)[O-])cc2)c(=O)[nH]c1=O	3.81%
CN(C)c1cc[n+](CC(=O)c2ccc(Br)cc2)cc1.[Cl-]	7.53%
Cc1ccc(C(=O)N/C(=C\c2cn(C)c3ccccc23)C(=O)OCCN(C)C)cc1	-0.359%
CCc1nc(SCC(=O)N2CCc3cc(OC)c(OC)cc3C2)c(C#N)cc1C	15.4%
Cn1cc(CN2CCC(n3nccc3NC(=O)CCOc3ccccc3)CC2)cn1	7.33%
O=C(Cc1c(F)cccc1Cl)NNC(=O)c1ccccc1Cl	6.71%
O=c1c2ccsc2ncn1Cc1cccc(C(F)(F)F)c1	6.44%
COc1ccc(C(=O)Nn2c(C)nc3ccccc3c2=O)cc1Br	10.4%
COc1ccc(CNC(=O)c2ccc(-c3ccccc3)cc2)cc1	16.1%
C=CCN1CCN(C(=O)CSc2ccccc2)CC1	5.06%
O=C(CN(Cc1ccccc1)C(=O)c1ccco1)NCc1ccc(F)cc1	2.1%
O=C(c1cccc(NS(=O)(=O)c2ccc(F)c(F)c2)c1)N1CCN(Cc2ccccc2)CC1	4.84%
C/C(=N/NC(=O)Cc1cccc2ccccc12)c1cccs1	10.5%
COc1ccccc1C1C(C(=O)c2cc3ccccc3o2)=C(O)C(=O)N1c1cc(C)on1 (centres unmarked)	14.6%
O=C1COc2ccc(S(=O)(=O)NCCc3ccccc3)cc2N1	14.3%
Cc1cccc(CSc2nnc(-c3ccccn3)n2N)c1	9.76%
Cc1cccc(C)c1NS(=O)(=O)c1cc2c3c(c1)CC(=O)N3CCC2	9.75%

Compound	hERG current change (%, negative = inhibition) at 1uM
CS(=O)CCC(NS(=O)(=O)c1ccccc1)C(=O)O (centres unmarked)	13.7%
COC(=O)c1ccc(CN2C(=O)NC3(CCCCC3)C2=O)cc1	14.1%
O=c1c2c3c(sc2nc(N2CCNCC2)n1CCc1ccccc1)CCCCC3	6.75%
COc1ccc(C2/C=C\CNCC(=O)N2Cc2ccc(F)cc2)cc1 (centres unmarked)	8.65%
CCCOc1ccc(Cn2ccnc2)cc1[N+](=O)[O-]	-18.4%
COc1ccc2c(c1)[C@H]1[C@H](CO2)[C@H](c2ccccc2)[C@]2(C)C(=O)Nc3cc(Cl)ccc3C(=O)N12	2%
COCCNC(=O)CN(C(=O)Cn1nnc2ccccc21)c1ccccc1C	5.18%
CC(=O)N(CCCNC(=O)c1ccccc1)C(=O)c1ccccc1	10.6%
COC(=O)CSc1ccc2nnc(-c3ccc(OC)c(OC)c3)n2n1	0.586%
Cc1cc(C)cc(NC(=O)N2CCN(C/C=C/c3ccccc3)CC2)c1	-40%
O=C(Nc1ccc(-c2cc3ccccc3oc2=O)c(Cl)c1)c1cccnc1	2.01%
CCCCC1CCC(c2nc(-c3ccccn3)no2)CC1 (centres unmarked)	5.57%
O=C(N/N=C/c1ccncc1)c1cccc(NC(=O)c2ccccc2Cl)c1	4.79%
COC(=O)[C@@]1(Cc2ccc(OC)cc2)[C@@H]2C(=CC(=O)[C@H]2CC(=O)C(=O)N(C)C)CN1C(=O)c1ccccc1	-7.95%
COc1ccc(C(=O)Nc2cc(C)ccc2NC(=O)COc2ccccc2)cc1	5.43%
Cl.OC(COCC1COc2ccccc2O1)CN1CCN(c2ccccc2F)CC1 (centres unmarked)	-19.9%
O=C(Cn1ncc2c(=O)oc3ccccc3c21)NCc1cccnc1	4.02%
CCCCn1c(N)c(N(CC)C(=O)c2cccc(C)c2)c(=O)[nH]c1=O	12.8%
C=CCc1c(C)nc2cc(-c3ccc(C)cc3)[nH]n2c1=O	7.24%
O=C(NNc1cccc(Cl)n1)c1c(Cl)cccc1Cl	14.7%
COC(=O)c1cc2n3ccccc3c(C)c(-c3ccccc3)c-2c1C(=O)OC	-6.52%
Cc1ccc(CCNC(=O)c2cc(C)nn2-c2ccccc2)cc1	-2.18%

Compound	hERG current change (%, negative = inhibition) at 1uM
CC(=O)c1c(C)[nH]c(C(=O)Nc2ccc(C)c(S(=O)(=O)N(C)C)c2)c1C	-9.05%
O=C(CCC1CCCC1)NCCCNC(=O)CCC1CCCC1	10.6%
Cc1cc(NC(=O)c2n[nH]c(=O)c3ccccc23)ccc1Br	9.97%
O=C(O)c1cc(O)ccc1NC(=O)C(c1ccccc1)c1ccccc1	10.4%
CCOc1ccc(CCNC(=O)CCCn2c(=O)c3cccn3c3cccnc32)cc1OCC	-6.56%
COc1ccc(/C=N/NC(=O)c2ccccc2OC)cc1COc1ccccc1[N+](=O)[O-]	8.25%
O=C(CCNc1n[nH]c(=O)[nH]c1=O)N/N=C/c1ccccc1Br	8.78%
CCC(C)c1ccccc1NC(=O)COC(=O)c1ccc2[nH]c3c(c2c1)CCCC3 (centres unmarked)	-2.95%
Cc1ccc(S(=O)(=O)c2ccc(-n3nc(C)cc3N)cc2)cc1	9.92%
COc1ccccc1-n1nc(C(=O)Nc2ccc3c(c2)OCO3)c2ccccc2c1=O	9.19%
Cc1ccc(NC(=S)N(CCN(C)C)Cc2cccs2)cc1	6.87%
COC1C(C)=C(C)C(=O)N1Cc1ccc(F)cc1 (centres unmarked)	14.7%
Cc1ccc(C(O)c2cccnc2)o1 (centres unmarked)	14.2%
Cc1ccc(-n2nnc3c(SCC(=O)NCc4ccco4)ncnc32)cc1	5.33%
O=C(Nc1ccc(F)cc1)c1ccc2c(=O)n3c(nc2c1)CCCCC3	-23%
COc1ccc(C2Nc3ccccc3C(=O)N2c2ccccc2)cc1COc1ccccn1 (centres unmarked)	15.1%
COc1cccc(NC(=O)CSc2nc3scc(C)c3c(=O)[nH]2)c1	10.3%
COc1ccc(-c2nc3ccc(N4CCN(C)CC4)cc3c(=O)[nH]2)cc1	11.5%
CC(NC(=O)COC(=O)c1ccc2c(c1)S(=O)(=O)N=C1CCCCCN12)C12CC3CC(CC(C3)C1)C2 (centres unmarked)	0.02%
CC(=O)N1CCC(C(=O)OCc2ccccc2F)(c2ccccc2)CC1	13.3%
